Reference: patent publication US20110027291A1, “METHODS, SYSTEMS AND PRODUCTS FOR PREDICTING RESPONSE OF TUMOR CELLS TO A THERAPEUTIC AGENT AND TREATING A PATIENT ACCORDING TO THE PREDICTED RESPONSE” (MERRIMACK PHARMACEUTICALS, INC., priority 2008, published 2011)

B1: H3×B1D2: bispecific antibody, SEQ ID NO: 41: anti-ErbB3 single chain antibody H3 linked to anti-ErbB2 single chain antibody B1D2 (protein)
chain: QVQLQESGGGLVKPGGSLRLSCAASGFTFSSYWMSWVRQAPGKGLEWVANINRDGSASYYVDSVKGRFTISRDDAKNSLYLQMNSLRAEDTAVYYCARDRGVGYFDLWGRGTLVTVSSASTGGGGSGGGGSGGGGSQSALTQPASVSGSPGQSITISCTGTSSDVGGYNFVSWYQQHPGKAPKLMIYDVSDRPSGVSDRFSGSKSGNTASLIISGLQADDEADYYCSSYGSSSTHVIFGGGTKVTVLGAAS[about 600 residues skipped]AAALQVQLVQSGAEVKKPGESLKISCKGSGYSFTSYWIAWVRQMPGKGLEYMGLIYPGDSDTKYSPSFQGQVTISVDKSVSTAYLQWSSLKPSDSAVYFCARHDVGYCTDRTCAKWPEWLGVWGQGTLVTVSSGGGGSSGGGSGGGGSQSVLTQPPSVSAAPGQKVTISCSGSSSNIGNNYVSWYQQLPGTAPKLLIYDHTNRPAGVPDRFSGSKSGTSASLAISGFRSEDEADYYCASWDYTLSGWVFGGGTKLTVLG
B2: H3 x B1D2 (protein)
chain: QVQLQESGGGLVKPGGSLRLSCAASGFTFSSYWMSWVRQAPGKGLEWVANINRDGSASYYVDSVKGRFTISRDDAKNSLYLQMNSLRAEDTAVYYCARDRGVGYFDLWGRGTLVTVSSASTGGGGSGGGGSGGGGSQSALTQPASVSGSPGQSITISCTGTSSDVGGYNFVSWYQQHPGKAPKLMIYDVSDRPSGVSDRFSGSKSGNTASLIISGLQADDEADYYCSSYGSSSTHVIFGGGTKVTVLGAAS[about 600 residues skipped]AAALQVQLVQSGAEVKKPGESLKISCKGSGYSFTSYWIAWVRQMPGKGLEYMGLIYPGDSDTKYSPSFQGQVTISVDKSVSTAYLQWSSLKPSDSAVYFCARHDVGYCTDRTCAKWPEWLGVWGQGTLVTVSSGGGGSSGGGSGGGGSQSVLTQPPSVSAAPGQKVTISCSGSSSNIGNNYVSWYQQLPGTAPKLLIYDHTNRPAGVPDRFSGSKSGTSASLAISGFRSEDEADYYCASWDYTLSGWVFGGGTKLTVLG

Key:
BT474-M3 xenograft tumor = assay: Xenograft tumor model treated with H3×B1D2: BT474-M3; assay type: in vivo, nu/nu mice; conditions: 600 μg/injection every 3 days, negative RGR = tumor regression
Procedure: (§1) To characterize the in vivo response of tumors to H3×B1D2 treatment, a panel of tumor cell lines was tested in a xenograft tumor model such as described in Example 1. In the xenograft tumor models, mice (nu/nu mice: 4-5 week old female mice, athymic, nude, outbred background; Albino; purchased from Charles River Labs, Wilmington, Mass.) are implanted in the flank with 5×10^6−2×10^7 cells/mouse (depending on cell line) in 200 μl via subcutaneous injection. Mice are monitored for initial tumor growth. Tumors are allowed to grow for several days until the mean tumor volume is approximately 150-200 mm^3. The tumor volume is calculated as V=(π/6 (L×W^2). The mice are treated with the H3×B1D2 antibody at a dosage of 600 μg/injection every 3 days (q3d). Control mice are treated with phosphate buffered saline (PBS) or with wild-type HSA (human serum albumin). Tumor volume is measured for 40-80 days.
(§2) The control and treatment data from the in vivo xenograft experiments was fitted to exponential growth curves, using the following formula: V=Vo*exp(k*t)
(§3) wherein V is the tumor volume, Vo is the tumor volume at time zero, k is the exponential growth rate and t is the time. The potency of H3×B1D2 in inhibiting tumor growth was represented as the ratio of treatment and control exponential growth rates for each cell line tested. […]

IGROV1 xenograft tumor = assay: Xenograft tumor model treated with H3×B1D2: IGROV1; assay type: in vivo, nu/nu mice; conditions: 600 μg/injection every 3 days, RGR of 1 = no effect
Procedure: as §1, §2, §3

LS180 xenograft tumor = assay: Xenograft tumor model treated with H3×B1D2: LS180; assay type: in vivo, nu/nu mice; conditions: 600 μg/injection every 3 days, RGR of 1 = no effect
Procedure: as §1, §2, §3

[1] = system: pErbB3 and pAKT levels in ADRr cells; assay: Inhibition of HRG-induced pErbB3 and pAKT signaling by H3×B1D2 in ADRr cells (ELISA); assay type: cell-based; conditions: ADRr cells (low ErbB2); 5 nM HRG stimulation, ten-minute lysis
Procedure: (§4) For stimulation of the cells, the cells are seeded in duplicate wells with 1000 μl complete media at 150,000 cells per well in 12 well tissue culture plates (for 96 half well ELISA) or in duplicate plate of 100 μl complete media at 20,000 cells per well in 96 well tissue culture plates (for 384 well ELISA). These cells are incubated overnight in a humidified atmosphere of 5% CO2, 95% air and 37 degrees Celsius. Cells are then switched to serum free media: RPMI-1640 media (Gibco) supplemented with, 2 mM L-glutamine (Gibco) and units/mL Pen-Strep (Gibco). Starved cells are incubated in a humidified atmosphere of 5% CO2, 95% air and 37 degrees Celsius for 20-24 hours prior to stimulation. For dose-time matrix studies, cells are stimulated with ligand (HRG) at 0, 1, 2, 3, 4, 5, 7, 10, 20, 30, 60 and 120 minutes. Following stimulation with six different concentrations of HRG (0.098 nM-100 nM) for each time course, cells are placed on ice, washed with cold PBS, then lysed in 200 μl for 12 well plates and […]
(§5) Levels of protein phosphorylation in the stimulated cells are measured by ELISA. ErbB1, ErbB2, and ErbB3 are measured using R&D Systems Duoset IC kits (ErbB1 DYC1095-E, ErbB2 DYC1768-E, ErbB3 DYC1769-E). […] All ELISAs are visualized with SuperSignal ELISA Pico Chemiluminescent Substrate (Pierce, Catalog #37069) and luminescent signal is measured using a luminometer. […]

[2] = system: pErbB3 and pAKT levels in OVCAR8 and OVCAR8-HER2 cells; assay: Inhibition of HRG-induced pErbB3 and pAKT signaling by H3×B1D2 in OVCAR8 and OVCAR8-HER2 cells (ELISA); assay type: cell-based; conditions: ErbB2-transfected OVCAR8-HER2 vs OVCAR8 cells; 5 nM HRG stimulation, ten-minute lysis
Procedure: as §4, §5

ErbB3 = ErbB3 (Homo sapiens, UniProt P21860); assay: H3×B1D2: on-rate and off-rate of H3 single chain arm by BIACore and KinExA (Tables 16a, 16b); assay type: binding
Excerpt: (§6) Next, a computational representation of the mechanism by which H3×B1D2 inhibits HRG-dependent signaling of the ErbB pathway was developed. The computational representation of the inhibitor was constructed using mass-action reaction equations that describe the binding of inhibitor to ErbB2 and ErbB3 and subsequent inhibition of HRG-induced signaling. Parameters for the binding events were obtained by a combination of direct measurement (using techniques widely known in the art) and computational training of the model to match data for the inhibition of HRG-induced pErbB3 in cells by H3×B1D2. In particular, the on-rate and off-rate for binding of the H3 single chain arm of the bispecific antibody to ErbB3 and the on-rate and off-rate for the binding of the B1D2 single chain arm of the bispecific antibody to ErbB2 were experimentally determined by standard BIACore and KinExA technology. Reactions and parameters for the computational model of H3×B1D2 appear in Tables 16a and 16b.

ErbB2 = ErbB2 (Homo sapiens, UniProt P04626); assay: H3×B1D2: on-rate and off-rate of B1D2 single chain arm by BIACore and KinExA (Tables 16a, 16b); assay type: binding
Excerpt: as §6

Row | Molecule | relative growth rate (RGR = kH3×B1D2/kcontrol) (BT474-M3 xenograft tumor) | relative growth rate (RGR = kH3×B1D2/kcontrol) (IGROV1 xenograft tumor) | relative growth rate (RGR = kH3×B1D2/kcontrol) (LS180 xenograft tumor) | percentage of inhibition of pErbB3 and pAKT [1] | inhibition percentage of pErbB3 and pAKT, OVCAR8-HER2 compared to OVCAR8 [2] | h3xb1d2_kr2: reverse parameter, (H3 x B1D2) + E3 <-> (H3 x B1D2):E3 (ErbB3; off-rate of H3 arm from ErbB3) | h3xb1d2_kf2: forward parameter, (H3 x B1D2) + E3 <-> (H3 x B1D2):E3 (ErbB3; on-rate of H3 arm to ErbB3) | h3xb1d2_kr1: reverse parameter, E2 + (H3 x B1D2) <-> E2:(H3 x B1D2) (ErbB2; off-rate of B1D2 arm from ErbB2) | h3xb1d2_kf1: forward parameter, E2 + (H3 x B1D2) <-> E2:(H3 x B1D2) (ErbB2; on-rate of B1D2 arm to ErbB2)
1 | B1 | negative | greater than 1 | greater than 1 | poor percentage of inhibition | greater inhibition percentage | – | – | – | –
2 | B2 | – | – | – | – | – | 0.022 s⁻¹ | 3.50E+05 (mol/L)-1sec-1 | 0.00015 s⁻¹ | 3.13E+04 (mol/L)-1sec-1
